The record followed here is the supplement of paper PMC11417369.

± gives the standard deviation of the averaged measurements. The list shows a part of the results.

For the assay, the system named is PfAP2-EXP AP2 domain (GST-tagged). Description: gcPBM binding intensity (ln(normalized median fluorescence intensity)); higher = stronger DNA binding. An outline of the steps:
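Using an Agilent 4 × 180k array, primer-extended double-stranded 36-bp intergenic genomic probes and negative controls were exposed for 1 h to GST-fused P. falciparum DNA-binding domains expressed in E. coli. Binding was carried out in 1× PBS with 1% milk, 0.2 mg/ml BSA, 0.5% salmon testes DNA and 0.03% Triton X-100, and protein was detected with Alexa488 anti-GST antibody and a 488 nm scan. Binding intensity is the highest Masliner-normalised natural-log median intensity across replicate spots of either probe orientation.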
For “TTTTATTAAAACCACGCATGCAGAGGAAACGGTGAG [TGCATGCA_site1029]”, the “gcPBM binding intensity (ln)” value is 9.78 ± 0.45.
As for “ATATATAATTTTTGCTGTACACAAAATATTAATTTA [XGTACX_site2057]”, the “gcPBM binding intensity (ln)” value amounted to 8.64 ± 0.29.
Take “TATGACATATCCTGTAGTACAACGTATATATAAGAT [XGTACX_site1327]”: the “gcPBM binding intensity (ln)” value came to 8.7 ± 0.22.
Consider “AATAAAAATAATGAATGTACATATATATATACAATA [XGTACX_site3342]”, for which the “gcPBM binding intensity (ln)” value turned out to be 8.57 ± 0.47.
With “ATATATAACGTGCACACACACATTTACGTATGAATA [CACACA_site6948]”, the “gcPBM binding intensity (ln)” value worked out at 9.48 ± 0.23.
Under “ATTATATCATCTAAAACATGCACACATATGTACTCT [TGCATGCA_site949]” stands 8.91 ± 0.46; under “GTTGAGAAAATATGTGCATGTCAGGTTAAATTTTTA [TGCATGCA_site744]”, 8.63 ± 0.33.
Regarding “TAAGATAAAAAAAATGCATGTTCTTATAATATTGTC [TGCATGCA_site939]”, the “gcPBM binding intensity (ln)” value was 9.03 ± 0.17.
The figure for “ATATATATATATATATGTACATAATATATGTCCTAT [XGTACX_site5087]” is 10 ± 0.55; for “GTAAGCATAAATATATGTACATACATATACAGATAT [XGTACX_site3361]” it is 8.6 ± 0.37; for “ATTAGTTTACACATATGTACATATATTACAACAAAA [XGTACX_site275]” it is 8.76 ± 0.47.
The figure for “GGTGATATAATATATACATGCACATATATATTATTA [TGCATGCA_site970]” is 8.82 ± 0.057.
Take “TTTATATGTATGAAGTGTACACATATATTGTATTTT [XGTACX_site5731]”: the “gcPBM binding intensity (ln)” value was found to be 8.62 ± 0.28.
“TTACAAAAAAATAATTGTACATACAATTTCTGTTAT [XGTACX_site877]”: the “gcPBM binding intensity (ln)” value amounted to 8.31 ± 0.23.
Consider “TATGGAAATATATATTGTACGTATGACCTTTAAAAA [XGTACX_site3935]”, for which the “gcPBM binding intensity (ln)” value stood at 8.56 ± 0.37.
“TGGATAAAATAAAAATGTACTTAACATTTATATTTT [XGTACX_site712]”: the “gcPBM binding intensity (ln)” value stood at 8.02 ± 0.28.
In the case of “AACAAAAGTAATTAAAAACAATACAAACATATGTTT [XGTACX_negctrl_site220]”, the “gcPBM binding intensity (ln)” value worked out at 8.28 ± 0.48.
Consider “ATGTATGAAAAAATGTGTACATAATTTTTTTTTTTT [XGTACX_site5444]”, for which the “gcPBM binding intensity (ln)” value came out at 8.48 ± 0.23.
“ATCATTCAAAAATGCTGTACTAGGGGAAAACGTGTT [XGTACX_site7168]”: the “gcPBM binding intensity (ln)” value is 8.65 ± 0.49.
With “ATATATAGGTTCCCTTTTCTTTTTTTTTTTTTTTTT [CACACA_negctrl_site1159]”, the “gcPBM binding intensity (ln)” value was determined as 8.45 ± 0.4.
Take “TTTCTAATTTATATCACACACATATAAATATAGTAA [CACACA_site6210]”: the “gcPBM binding intensity (ln)” value was 8.42 ± 0.38.
“AAATAATATAAACATACACACACACCGATATATATA [CACACA_site8945]”: the “gcPBM binding intensity (ln)” value was 8.9 ± 0.31.
TTTGGAATATTAATTGTGCACTTAAAAAGTTAATTA: the “gcPBM binding intensity (ln)” value came to 8.9 ± 0.47.
“TTAAATGTTGGTTGTAGTACTCCATATGTTGTTTTA [XGTACX_site5312]”: the “gcPBM binding intensity (ln)” value was 8.53 ± 0.39.
“CTTATGTGCATACCTACACACTTACATATATATATA [CACACA_site8973]”: the “gcPBM binding intensity (ln)” value stood at 10 ± 0.14.
With “TGATACTGCAAAAAATATAAAAAAATAATAAAATAA [CACACA_negctrl_site791]”, the “gcPBM binding intensity (ln)” value came to 8.37 ± 0.3.
As to “TATATATATATAAGATGTACCCTTTGAAATAATAAT [XGTACX_site7215]”, the “gcPBM binding intensity (ln)” value turned out to be 9.84 ± 0.23.
For the sequence “AACATAAAACGTAATATATTACAAATATAAACAATC [CACACA_negctrl_site1675]”, the “gcPBM binding intensity (ln)” value came out at 9.12 ± 0.33.
In the case of “TTACCATTTGAAAATTCACACACTTTATTTTGTTAT [CACACA_site3799]”, the “gcPBM binding intensity (ln)” value came out at 8.64 ± 0.38.
Under “ATATATATATATATATGTACATATTTTATAACTGTA [XGTACX_site5395]” stands 10.2 ± 0.33; under “ATTTATACATATAAACGTACATACATATATAATATT [XGTACX_site2969]”, 8.54 ± 0.34; under “TTTCTTCGAAATAGAACACTTGTGCAAAATAAGCAA [XGTACX_negctrl_site361]”, 8.94 ± 0.014.
The figure for “TGAACAAAAAAAAATTGTACTTTTTTTTTAATATTT [XGTACX_site7172]” is 8.13 ± 0.25.
The figure for “ATTTTTTTATAAAATTTTTATATAATTTATTATAAA [GTGCAC_negctrl_site96]” is 8.16 ± 0.52.
“AAAAAAAACAATCTCATACACACTAGGGATTAATTA [CACACA_site1776]”: the “gcPBM binding intensity (ln)” value worked out at 8.34 ± 0.41.
Under “TAAAGAGAAATATGTACATGCGAAAATGCCTTAAAT [TGCATGCA_site1050]” stands 8.97 ± 0.39.
Regarding ATATATACTATAATAGTGCATTAAAAAAGTAAAAAT, the “gcPBM binding intensity (ln)” value was found to be 9.05 ± 0.16.
On to “AAATATAATATACAAAGTACTTTTTCATCTTATATA [XGTACX_site8771]”, for which the “gcPBM binding intensity (ln)” value came out at 8.24 ± 0.092.
Consider “AGACAATAATATAATCGTACAATAAATAAAATAAAA [XGTACX_site5231]”, for which the “gcPBM binding intensity (ln)” value is 8.78 ± 0.25.
As for “AAAATAATCTTTTGATTGCACTGTTACATTTTTTCT [GTGCAC_site9563]”, the “gcPBM binding intensity (ln)” value was 8.51 ± 0.25.
Take “TATAATATATTTTAATGTACGTACATCCCGATTAAT [XGTACX_site7651]”: the “gcPBM binding intensity (ln)” value came out at 8.79 ± 0.27.
Regarding “ATTTTTTTTTCTTAATGTACATACCAAAAAGAAAGA [XGTACX_site5471]”, the “gcPBM binding intensity (ln)” value stood at 8.57 ± 0.33.
For the sequence “GATAAAATATGTTGCCGTACATATTCATATACTTAA [XGTACX_site4776]”, the “gcPBM binding intensity (ln)” value worked out at 8.64 ± 0.38.
Under “TATTAATATATATGTTGTACAAGTTTTTTTTTTTTT [XGTACX_site5865]” stands 8.61 ± 0.5; under “TTTGTCTGCATACGCACACACGTGTACCATCTTATG [CACACA_site4784]”, 9.23 ± 0.52; under “TATATACGCATTTTTATACACACTTGTTTTATAAAA [CACACA_site727]”, 8.64 ± 0.35.
Regarding “ATATAAAATAATACATGTACATATTATATATATATA [XGTACX_site1082]”, the “gcPBM binding intensity (ln)” value stood at 9.62 ± 0.3.
With “TTCTATATTTCTTTTTGTACATATAAATTCAAATAA [XGTACX_site2476]”, the “gcPBM binding intensity (ln)” value came out at 8.95 ± 0.23.
“TATTTATATTCATAATGTACATTCAATTATTGTTTT [XGTACX_site4191]”: the “gcPBM binding intensity (ln)” value came out at 8.99 ± 0.88.
For the sequence “AAATATTAAATGACAAAAAAAAAAAAAAAAGGGGTT [CACACA_negctrl_site951]”, the “gcPBM binding intensity (ln)” value worked out at 8.32 ± 0.4.
For the sequence “TTCTTTATTTTTTCTACACACATTATATATTCAAAG [CACACA_site5866]”, the “gcPBM binding intensity (ln)” value came out at 8.89 ± 0.35.
Regarding “TATTTTGAAAATAAAAGTACAAATTTTATATTTAAA [XGTACX_site3238]”, the “gcPBM binding intensity (ln)” value is 8.11 ± 0.33.
For the sequence “TAAAAGTTCACCTGTACACACATATATATATGTACA [CACACA_site1707]”, the “gcPBM binding intensity (ln)” value worked out at 8.57 ± 0.31.
In the case of “TTTTTTATTTTTTGTTATATTTATAATAATTTATGA [XGTACX_negctrl_site260]”, the “gcPBM binding intensity (ln)” value came to 8.45 ± 0.69.
Regarding ATATATATATATGTAGTGCATTTTATATATAATATT, the “gcPBM binding intensity (ln)” value came to 9.97 ± 0.43.
Turning to “TACTTTACACATATTTTTAATTATTCTGAATTCAAA [GTGCAC_negctrl_site253]”, the “gcPBM binding intensity (ln)” value was determined as 8.51 ± 0.37.
On to “TACAGATATTTTATTTCACACATTTTATCATTTTCT [CACACA_site5701]”, for which the “gcPBM binding intensity (ln)” value was 8.88 ± 0.33.
